# PubChem BioAssay AID1347165 (National Center for Advancing Translational Sciences (NCATS), 2019)
# About 5,700 (2.6%) of roughly 220,000 compounds were called active. The shares of active, inactive and inconclusive entries below differ from those in the screen. The call rests on the fitted dose curve; in most records, active means well fitted inhibition curve with a large enough effect; inconclusive means small, poorly fitted or top-dose-only effect; inactive means no such curve, though single readings can be large or run the other way. A potency beside an inconclusive call is a rough fit, not a confirmed value.
# Molecular target: Lysine-specific demethylase 5B (Homo sapiens) (UniProt Q9UGL1)
# Sequence of UniProt Q9UGL1 (Q9UGL1 whole entry, looked up): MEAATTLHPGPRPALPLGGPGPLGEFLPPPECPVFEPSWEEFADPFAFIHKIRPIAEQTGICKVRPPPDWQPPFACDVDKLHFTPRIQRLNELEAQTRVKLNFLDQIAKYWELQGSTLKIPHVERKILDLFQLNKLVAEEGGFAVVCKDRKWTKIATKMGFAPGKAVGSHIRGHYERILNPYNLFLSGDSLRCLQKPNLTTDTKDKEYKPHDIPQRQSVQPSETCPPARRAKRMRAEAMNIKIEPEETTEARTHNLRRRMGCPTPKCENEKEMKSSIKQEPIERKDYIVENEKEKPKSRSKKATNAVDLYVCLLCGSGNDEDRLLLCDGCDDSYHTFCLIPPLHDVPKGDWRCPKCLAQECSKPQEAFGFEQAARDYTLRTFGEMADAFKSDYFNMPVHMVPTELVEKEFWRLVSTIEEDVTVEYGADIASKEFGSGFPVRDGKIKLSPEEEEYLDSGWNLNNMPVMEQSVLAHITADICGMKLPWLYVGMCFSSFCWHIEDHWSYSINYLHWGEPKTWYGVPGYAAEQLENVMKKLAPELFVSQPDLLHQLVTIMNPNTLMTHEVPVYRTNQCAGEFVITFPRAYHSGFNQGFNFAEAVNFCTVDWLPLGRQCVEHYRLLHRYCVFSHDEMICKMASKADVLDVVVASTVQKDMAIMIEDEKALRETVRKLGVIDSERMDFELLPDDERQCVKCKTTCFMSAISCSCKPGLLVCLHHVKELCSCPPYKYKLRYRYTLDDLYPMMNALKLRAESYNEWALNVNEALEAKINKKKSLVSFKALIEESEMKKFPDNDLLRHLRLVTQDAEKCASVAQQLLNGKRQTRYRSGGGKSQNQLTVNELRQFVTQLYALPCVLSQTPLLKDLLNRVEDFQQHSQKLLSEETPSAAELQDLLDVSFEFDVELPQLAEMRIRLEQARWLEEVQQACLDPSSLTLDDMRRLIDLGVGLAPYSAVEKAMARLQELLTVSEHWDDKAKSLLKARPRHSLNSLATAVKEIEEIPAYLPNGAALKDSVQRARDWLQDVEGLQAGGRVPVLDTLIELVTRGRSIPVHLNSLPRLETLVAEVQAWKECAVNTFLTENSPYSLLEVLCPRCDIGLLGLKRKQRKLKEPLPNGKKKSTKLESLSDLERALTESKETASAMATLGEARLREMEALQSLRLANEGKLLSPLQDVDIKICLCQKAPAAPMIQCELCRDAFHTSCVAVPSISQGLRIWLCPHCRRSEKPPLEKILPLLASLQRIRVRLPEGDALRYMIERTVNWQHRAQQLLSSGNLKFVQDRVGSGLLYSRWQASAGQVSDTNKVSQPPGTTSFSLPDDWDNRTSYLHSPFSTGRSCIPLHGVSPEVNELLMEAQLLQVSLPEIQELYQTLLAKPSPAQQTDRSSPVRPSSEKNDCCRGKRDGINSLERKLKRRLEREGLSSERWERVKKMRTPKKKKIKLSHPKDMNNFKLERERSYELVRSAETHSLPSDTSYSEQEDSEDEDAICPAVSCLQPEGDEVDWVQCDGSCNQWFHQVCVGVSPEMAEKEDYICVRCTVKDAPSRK
# Test: Primary screen for KDM5B Histone Demethylases FDH-coupled qHTS; further: nearly all actives have a fitted effect of over 70% in size
# Conditions: FDH-coupled NADH fluorescence (FDH is formaldehyde dehydrogenase); series mostly up to 57.7 µM
# In short: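 Coupled FDH/NAD⁺ fluorescence readout. KDM5BΔAP 200 nM final; compound titration, 10 min RT preincubation; substrate mix 12.5 µM H3K4me3, 25 µM 2-OG, 50 µM Fe(II), 100 µM ascorbate, 0.25 mM NAD⁺, 0.25 U/mL FDH; ΔRFU over 30 min.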
# Potency means the concentration at half of the fitted maximal effect; tags describe the fitted curve by direction and shape.
row,SMILES,Potency
1,O=C(O)c1csc(-c2cnccn2)n1,inactive
2,CC(c1cccs1)N(C)C(=O)Cc1n[nH]c(=O)c2ccccc12 (stereo not drawn),inactive
3,Cc1nn2c(C(F)(F)F)cc(-c3ccc(OC(C)C)cc3)nc2c1C#N,"inconclusive: 0.891 µM [inhibitor, full curve, poor fit]"
4,O=S(=O)(c1ccc(-c2cc(C(F)(F)F)on2)s1)N1CCN(c2cccc(Cl)c2)CC1,inactive
5,CCN1CCN(CCCNC(=O)c2cc3c(s2)-c2c(C)cccc2OC3)CC1,"inconclusive: 31.6 µM [inhibitor, partial curve, poor fit]"
6,O=C(COc1cccc2cccnc12)N/N=C/c1ccccc1O,"inconclusive: 39.8 µM [inhibitor, single point]"
7,CCOc1ccccc1CNC(=O)c1[nH]c2ccccc2c1Sc1ccccc1,"inconclusive: 39.8 µM [inhibitor, single point]"
8,CCc1ccc(CN2CCOCC(CO)C2)nc1 (stereo not drawn),"inconclusive: 22.4 µM [inhibitor, partial curve, poor fit]"
9,Cc1c(C#N)c(N)nc2c3c(sc12)NC(=O)CC3c1ccc(Cl)cc1 (stereo not drawn),"inconclusive: 10 µM [inhibitor, partial curve, poor fit]"
10,CCCc1nnc([C@H]2CCN(Cc3ccc(NC(C)=O)cc3)C2)o1,"inconclusive: 35.5 µM [inhibitor, partial curve, poor fit]"
11,CCc1ccccc1NC(=O)CSc1nc2c(cc1C#N)CCCC2,inactive
12,CCOCC(=O)N1CCC(O)(c2ccccc2)[C@H](N2CCCC2)C1 (stereo partly drawn),active: 10 µM
13,CS(=O)(=O)Nc1cccc(CNC(=O)CC2CCCCC2)c1,inactive
14,CC(C)CCn1nc(C(=O)NCc2ccc(Cl)cc2)c2ccccc2c1=O,inactive
15,COCCN(Cc1ccco1)c1nc(-c2ccc(OC)cc2)nc2ccccc12,"inconclusive: 31.6 µM [inhibitor, single point]"
16,CCN(CC)CCCNC(=O)CCc1c(C)n(CC)c2cc(-c3ccccc3OC)nn2c1=O,"inconclusive: 28.2 µM [inhibitor, partial curve, poor fit]"
17,Cc1cc2oc(=O)cc(COC(=O)c3n[nH]c4ccccc34)c2cc1Cl,inactive
18,CC(=O)NCc1ccc(C(=O)CSc2nnc(C3CC3)n2Cc2ccccc2)cc1,inactive
19,Cc1ccccc1Nc1ncnc2c1c(-c1ccccc1)cn2-c1ccc(F)cc1,"inconclusive: 31.6 µM [inhibitor, partial curve, poor fit]"
20,OC1(c2ccc(F)cc2)CCN(c2nccc(-c3ccccn3)n2)CC1,"inconclusive: 25.1 µM [inhibitor, partial curve, poor fit]"
21,CCc1ccc(CN2CCC3CC(=O)NCCC3C2)cc1 (stereo not drawn),"inconclusive: 63.1 µM [inhibitor, partial curve, poor fit]"
22,Cc1cc(C)cc(C(=O)N2CCN(Cc3cccc4cccnc34)CC2)c1,inactive

row,SMILES,Potency
1,O=S(=O)(NC(c1ccc(F)cc1)c1cccs1)c1cccs1 (stereo not drawn),inactive
2,O=C(Nc1cccc(Cl)c1)c1ccc2nc(Cc3ccccc3)oc2c1,"inconclusive: 39.8 µM [inhibitor, single point]"
3,C=CCNC(=O)N1CCC(O)(c2csc(CN3CCc4ccccc4C3)n2)CC1,"inconclusive: 50.1 µM [inhibitor, single point]"
4,c1ccc(Nc2cc3c(cn2)CN(Cc2cccs2)CCN3)cc1,"inconclusive: 28.2 µM [inhibitor, partial curve, poor fit]"
5,Cc1c(C(=O)N2CCCC2)oc2c1-c1nn(CC(=O)NCc3cccc(F)c3)cc1CC2,"inconclusive: 1.78 µM [inhibitor, full curve, poor fit]"
6,CCCc1nc(C(=O)NC(c2ccc(OC)nc2)C2CC(O)C2)cs1 (stereo not drawn),inactive
7,CCCCc1ccc(C(=O)Nc2ccc3nc(N(CC)CC)cc(C)c3c2)cc1,"inconclusive: 25.1 µM [inhibitor, partial curve, poor fit]"
8,COc1ccc2cc(CNc3ccc(C)cc3)c(=O)n(CC(=O)Nc3ccc(OC)c(Cl)c3)c2c1,"inconclusive: 3.55 µM [inhibitor, partial curve, poor fit]"
9,CCc1nc2c(c(-c3ccc(Cl)cc3)n1)CN(Cc1cccc3ccccc13)CC2,"inconclusive: 28.2 µM [inhibitor, partial curve, poor fit]"
10,CCc1ccc(OCC(=O)Nc2ccc3oc(-c4ccccc4F)nc3c2)c(-n2cnnc2)c1,"inconclusive: 22.4 µM [inhibitor, partial curve, poor fit]"
11,COc1ccccc1CNC(=O)c1cc(Sc2cccc(Cl)c2)nc2ccccc12,"inconclusive: 35.5 µM [inhibitor, partial curve, poor fit]"
12,O=C(CN1CCCC(c2nc3ccccc3o2)C1)NC(=O)NC1CC1 (stereo not drawn),inactive
13,CCc1ccc(C(=O)c2cnc3ccc(C)cc3c2S(=O)(=O)c2ccc(OC)cc2)cc1,"inconclusive: 11.2 µM [inhibitor, partial curve, poor fit]"
14,Cc1c(C(=O)O)sc2nc(/C=C/c3cccc(F)c3)[nH]c(=O)c12,"inconclusive: 25.1 µM [inhibitor, partial curve, poor fit]"
15,O=C(O)Cn1nc(N2CCN(c3ccc(F)cc3)CC2)ccc1=O,"inconclusive: 39.8 µM [inhibitor, single point]"
16,Cc1nn(CCC(=O)Nc2cccc(F)c2)c(=O)c(C#N)c1C,inactive
17,CCc1noc(-c2cccn3c(CNC(=O)C(CC)c4ccccc4)nnc23)n1 (stereo not drawn),active: 28.2 µM
18,CCCC(=O)N(CC)CCc1ccccc1,inactive
19,COc1ccc(-n2c(C)c(C)c3c2ncn2nc(-c4ccccn4)nc32)cc1,"inconclusive: 2.51 µM [inhibitor, full curve, poor fit]"
20,CN1[C@@H](CCC(=O)NCc2ccc(F)cc2)CNC(=O)[C@@H]2[C@H]1CCN2Cc1csnn1,"inconclusive: 31.6 µM [inhibitor, single point]"
21,Oc1ccc(-c2nc3cc(C(F)(F)F)ccc3s2)cc1,"inconclusive: 25.1 µM [inhibitor, partial curve, poor fit]"
